Assay results: PubChem BioAssay AID1508642 (National Center for Advancing Translational Sciences (NCATS), 2021)
Out of some 43,000 compounds screened, about 200 (0.47%) were called active. Another 12% or so got no clear call; they are omitted. Calls follow the shape of the dose curve; as a rule, active = well fitted cell-killing curve with a large enough effect; inconclusive = small, poorly fitted or top-dose-only effect, or effect the other way; inactive = flat fitted curve, though single readings scatter. Some of the results follow.

Assay: Cell viability qHTS assay in S16 Pmp22-F2sN cells; also: nearly all actives have a fitted effect of over 65% in size
Settings: S16 Pmp22-F2sN Schwann cells (luciferase reporters placed in the Pmp22 gene) viability, CellTiter-Glo, 24 h; series mostly up to 57.5 µM; activity change, negative = cytotoxicity: at the top concentration
Description: Assay Provider: Jim Inglese Ph.D. National Center for Advancing Translational Science, National Institutes of Health, Rockville, MD CMT is a heterogeneous group of neurological disorders that affect approximately 1 in 2,500 people. In particular, the most common form of CMT, CMT1A is genetically linked to the duplication of the PMP22 gene which leads to Schwann cell overexpression, thus manifesting itself as a typical case of dose-sensitive diseases. To identify small molecule compounds that can mediate the expression of PMP22 we developed a phenotypic assay screening strategy by utilizing genome editing techniques to construct Schwann cell lines containing novel reporter technology to monitor the transcriptional or translational regulation of PMP22. For high sensitivity we use a bioluminescent reporter system embedded in the 3' UTR of the PMP22 gene (S16(c9) Pmp22-F2sN) to identify compounds that inhibit gene expression. […] We can further discriminate the effect of all transcriptionally active molecules on PMP22 translation or stability with an assay that incorporates a short NLuc peptide (HiBiT) at the C-terminus of expressed PMP22 (S16(f8) PMP22-HiBiT) allowing alpha complementation and luminescence detection of membrane-associated PMP22 protein. These assays were screened against the NCATS Sytravon Library Collection. Miniaturization of these assays to 1536-well plate format for quantitative high throughput screening (qHTS) yielded rich data sets immediately from the qHTS assay (S16(c9) Pmp22-F2sN), when compared with data from a cell viability assay (Cell TiterGlo) to identify compounds that decreased the output signals through cellular toxicity to streamline the selection process of actives for subsequent characterization using the HiBiT assay (S16(f8) PMP22-HiBiT).
Cell viability assay in S16 Pmp22-F2sN cells PROTOCOL TABLE (format as described by Inglese J, Shamu CE and Guy RK. 2007) SEQUENCE No. (e.g., 1, 2, 3, etc.); […] (e.g., Cells, Incubation, Reagent, etc.); VALUE and DESCRIPTION. 1. Cells. Add 500-1,000 cells in 4 uL in growth media (DMEM High Glucose, No Phenol Red media + 10% heat-inactivated FBS + 1% Pen/Strep supplemented media) per well into Greiner 1536-well white/solid bottom high base, TC-treated plates. 2. Compounds. Library compounds and controls added at 23nL per well, transferred by Pin Tool. 3. Incubation. Incubate plates at 37C, 5% CO2, 95% RH for 24 h. 4. Reagent. Add 3uL CellTiter-Glo per well of Greiner 1536-well plates. 5. Incubation. Incubate plates at room temperature for 15 min., protect from light. 6. Detector. FLuc luminescence measured using CCD-based camera (Viewlux). NOTES (numbers refer to Sequence numbers above; values are from representative experiments) 6. Luminescence Read: Clear filter; Exposure = 1 sec, Gain = High, Speed = Slow, Binning = 2X REFERENCES: 1. Inglese J, Shamu CE and Guy RK, Reporting data from high throughput screening of small molecule libraries, Nature Chemical Biology, 2007, 3(8): 438-441. doi.org/10.1038/nchembio0807-438 2. Yasgar A, Shinn P, Jadhav A, Auld DS, Michael S, Zheng W, Austin CP, Inglese J and Simeonov A, Compound Management for Quantitative High-Throughput Screening. J. Assoc. Lab. Auto., 2008, 13: 79-89. doi: 10.1016/j.jala.2007.12.004
% is scaled to controls: 0 for no effect and ±100 for the full control effect.

Compound | activity change, negative = cytotoxicity
O=C(NCc1ccccc1Br)c1cnc2sc(N3CCCCCC3)nn2c1=O | inactive: 10.9%
CCC(=O)Nc1ccccc1-c1nc2ccccc2n(CC(=O)c2ccc(C)cc2)c1=O | inactive: 10.1%
CSc1ncc(Cl)c(C(=O)Nc2c(C(=O)Nc3cccc(Cl)c3)oc3ccccc23)n1 | inactive: -2.1%
Cc1ccc(N2CCN(C(=O)c3cnc(N4CCCCC4)c4ccccc34)CC2)c(C)c1 | inactive: -29.4%
COc1ccc(CNC(=O)CCCN2C(=O)COc3ccc(C)cc32)cc1 | inactive: 0.315%
COc1cccc(Cn2nnc3c(=O)[nH]c(C4CCN(C(=O)c5ccccc5Cl)CC4)nc32)c1 | inactive: -26.9%
COc1ccc2oc(=O)c(C(=O)NCCc3c(C)[nH]c4ccc(F)cc34)cc2c1 | inactive: 4.8%
COCCNc1oc(-c2ccccc2)nc1S(=O)(=O)c1ccc(Br)cc1 | inactive: 4.78%
CCCCN(CC)CCCNC(=O)c1cc2c(=O)[nH]c3ccccc3c2n1C | inactive: -2.84%
COc1ccc(NC(=O)CCCSc2nc(-c3ccco3)cc(C(F)(F)F)n2)cc1OC | inactive: -9.59%
CCc1ccc(-c2cn3c(n2)sc2cc(C(=O)NC4CCCCC4)ccc23)cc1 | inactive: 8.73%
COc1cccc(-c2nc(S(=O)(=O)c3ccc(Cl)cc3)c(NCc3ccccc3)o2)c1 | inactive: 8.13%
COc1cccc(C(=O)Nc2cccc(OCc3cc(=O)n4c5c(sc4n3)CCCC5)c2)c1 | inactive: 4.72%
CC(=O)Nc1ccc(NS(=O)(=O)c2c(C(=O)N3CCC(C)CC3)c(C)n(C)c2C)cc1 | inactive: 4.37%
Cc1nn(S(=O)(=O)c2ccc(Br)cc2)c(C)c1S(=O)(=O)N1CCCCCC1 | inactive: 7.35%
Cc1cc(C)cc(NC(=O)CCS(=O)(=O)c2cccc3nsnc23)c1 | inactive: 5.84%
COc1cccc(Cn2c(Oc3cc(C)cc(C)c3)nc3c2c(=O)n(C)c(=O)n3C)c1 | inactive: -1.96%
CCc1ccc(N(CC)C(=O)c2cc3c(=O)oc4ccc(C)cc4c3s2)cc1 | inactive: 8.84%
COc1cccc(NC(=O)C(=O)NCC(c2ccc3c(c2)OCO3)N2CCN(C)CC2)c1 (centres undefined) | inactive: -25.9%
Cc1cccc(C)c1Nc1nn2c(=O)c3cc4c(cc3nc2s1)OCO4 | inactive: 10.8%
CC(=O)c1ccc(NS(=O)(=O)c2cccc(S(=O)(=O)c3ccc(Cl)cc3)c2)cc1 | inactive: -1.7%
CCCC(=O)Nc1ccccc1OCc1cc(=O)n2cc(C)ccc2n1 | inactive: 8.59%
Cc1ccc(CCNC(=O)c2ccc3c(Cl)c4c(nc3c2)CCCC4)cc1 | inactive: 26.2%
Cc1ccc(C)c(N2CCN(c3c(CN4CCCC4)c(=O)oc4ccccc34)CC2)c1 | inactive: 2.27%
COc1ccccc1CNC(=O)c1ccc2nc(N3CCCCC3)sc2c1 | inactive: 4.34%

Compound | activity change, negative = cytotoxicity
CCC1CN(C(=O)N2CCC(C(=O)Nc3ccccc3F)CC2)c2ccccc2O1 (centres undefined) | inactive: -0.958%
O=C(Nc1cccc(Cl)c1Cl)c1cc(S(=O)(=O)NCc2ccc3c(c2)OCO3)ccc1F | inactive: -1.48%
Cc1ccc(-n2c(=O)cc(N3CCN(c4ccccc4Cl)CC3)[nH]c2=O)cc1 | inactive: -4.55%
CN(C)c1ccc(C(CNC(=O)c2ccccc2C(F)(F)F)N2CCOCC2)cc1 (centres undefined) | inactive: 12.9%
CCCCSc1nnc2c(n1)OC(c1ccc(Br)s1)N(C(C)=O)c1ccccc1-2 (centres undefined) | inactive: -0.544%
Cc1ccc(CN2CCCN(CC(=O)Nc3ccc(C)cc3C)S2(=O)=O)cc1 | inactive: -0.701%
Cc1c(C(=O)Nc2ccc(C(=O)O)cc2)nnn1-c1ccccc1 | inactive: -4.77%
CSc1ccc(CCNC(=O)Cn2ccc3cc(S(=O)(=O)N4CCCCCC4)ccc32)cc1 | inactive: -0.847%
O=C(Nc1nc2n(n1)C(c1ccc(F)cc1)C=C(c1ccccc1)N2)c1ccco1 (centres undefined) | inactive: -23.2%
O=c1c(-c2cc(-c3ccccc3)nc3c2COc2ccc(Cl)cc2-3)coc2ccc(F)cc12 | inactive: 11.2%
Cc1c(Cl)cccc1NC(=O)c1ccc2c(c1)CCN2S(=O)(=O)c1ccccc1 | inactive: 3.16%
Cn1nnnc1SCCCNCc1cc(Cl)ccc1OCc1ccc(F)cc1 | inactive: -27.7%
COC(=O)c1c(NC(=O)c2nc(SCc3ccc(F)cc3)ncc2Cl)sc2c1CCCC2 | inactive: 1.89%
Nc1c(C(=O)Nc2ccc(OC(F)(F)F)cc2)sc2nc(-c3ccncc3)ccc12 | inactive: 2.96%
Cc1nn2c(=O)cc(COC(=O)Cc3ccccc3)nc2s1 | inactive: 13.1%
CCOc1ccccc1-c1noc(CSc2nnc(-c3ccccc3)n2-c2ccc(F)cc2)n1 | inactive: -4.21%
COc1ccc(CNC(=O)C2CCCN(S(=O)(=O)c3cccc4nsnc34)C2)cc1 (centres undefined) | inactive: 2.1%
COc1ccccc1NC(=O)C1=C(C)Nc2nc(CCCO)nn2C1c1cccc(O)c1 (centres undefined) | inactive: 12.5%
COc1ccc2c(Sc3ccc(C)cc3)c(C(=O)NCc3ccc(F)cc3)[nH]c2c1 | inactive: 10.5%
O=C(Cn1cc(S(=O)(=O)N2CCCC2)c(S(=O)(=O)N2CCCC2)c1)Nc1ccccc1 | inactive: 5.56%
Cn1c(=O)c(=O)n(C)c2cc(S(=O)(=O)N3CCN(c4ccc(F)cc4)CC3)ccc21 | inactive: 1.64%
COc1cc(C2CC(=O)c3cnc(N4CCN(CCO)CC4)nc3C2)cc(OC)c1OC (centres undefined) | inactive: 15.1%
CCCC(=O)Nc1cc(C(=O)NCc2ccccc2)ccc1S(=O)(=O)c1ccc(Cl)cc1 | inactive: -22.3%
O=C(CSc1nc2c(oc3ccccc32)c(=O)n1-c1ccccc1)Nc1ccccc1F | inactive: -16.9%
